In PubChem BioAssay AID1508623 (National Center for Advancing Translational Sciences (NCATS), 2021):
The campaign covered roughly 48,000 compounds. About 450 (0.94%) were called active. Roughly 19% stayed inconclusive and do not appear here. Calls come from the whole dose curve; as a rule, active = well fitted inhibition curve with a large enough effect; inconclusive = small, poorly fitted or top-dose-only effect; inactive = no such curve, though single readings can be large or run the other way. Some of the results follow.

Assay: Primary qHTS for Identification of Small Molecule Inhibitors of Huntingtin Promoter Activity; note: nearly all actives have a fitted effect of over 50% in size
Settings: HEK293 HTT promoter firefly luciferase reporter (activity 0% = vehicle and -100% = no light), 24 h; series mostly up to 57.5 µM; activity change, negative = inhibition: at the top concentration
Summary of the method: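 Firefly luciferase readout (Dual-Glo, 10 min RT) after 24 h, 37 °C compound exposure (final up to 57.5 uM) of HEK293 reporter cells cultured 24 h beforehand; PTC124 at 50 uM final as control inhibitor; activity scaled vehicle 0%, zero RLU -100%.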

Activity change, negative = inhibition, inactive:
CCCCCOC(=O)CSc1ncnc2c1sc1nc(N3CCOCC3)c3c(c12)CCCC3 -3.58%
CCC(=O)N1CCN(c2ccc(-n3c(=O)ccc4cnc5ccc(-c6cnc7ccccc7c6)cc5c43)cc2C(F)(F)F)CC1 -28.8%
Cc1cc(Nc2cccc(C)c2C)n2cnnc2n1 2.6%
Cn1c(=O)c2c(-c3ccccc3Cl)n(-c3cc(Cl)ccc3O)cc2n(C)c1=O -15.3%
Cc1ccc(C)c(-n2c(CCC(=O)O)ccc2-c2ccc(Cl)cc2)c1 -22.7%
COc1ccc(CNC(=O)c2c(O)nc3cc(C)ccn3c2=O)cc1 -4.01%
CCc1ccc2ncc3c(-c4ccc(F)cc4)nn(CC(=O)NCc4ccccc4)c3c2c1 3.12%
CC(C)CC(C(=O)NCc1ccc(F)cc1)N1Cc2ccccc2C1=O (stereo unspecified) -23.5%
CCOc1ccc(-c2nc(SCC(=O)Nc3ccc(C)c(C)c3)n3[nH]c(=O)cc3n2)cc1 -10.3%
Cc1ccc(C(C)C)c(OCC(=O)Nc2ccc(C(=O)OC3CCCCC3)cc2)c1 4.33%
CCc1nnc(SCc2nc(-c3ccc(OC)c(OC)c3)oc2C)c2cc3sc(C)cc3n12 -5.4%
Cc1ccc(/C=C/c2onc(C)c2S(=O)(=O)N2CCC(C(=O)NCc3ccc(C)o3)CC2)cc1 -20.2%
COc1cccc(CNC(=O)Cc2ccc(NC(=O)N3CCCCc4ccccc43)cc2)c1OC -25.2%
Cc1cc(C)cc(N2C(=O)CSC23C(=O)N(CC(=O)NCCc2ccccc2)c2ccccc23)c1 (stereo unspecified) -3.97%
O=c1[nH]c(=O)c2[nH]c(=O)[nH]c2[nH]1 -5.97% [at 11.5 µM]
CC(C)Oc1ccc(CNC(=O)CN2C(=O)CCc3cc(S(=O)(=O)N4CCCCC4)ccc32)cc1 -23.9%
COc1ccc(NC(=O)CCS(=O)(=O)c2cccc3nonc23)cc1Cl -12.7%
COc1ccccc1NCc1cccn1-c1nnc(N2CCOCC2)s1 3.46%
Cc1oc2ncn(C)c(=O)c2c1C(=O)NC(C)c1ccccc1 (stereo unspecified) -16.1%
O=C(CSC1=Nc2ccccc2N=C(c2ccc(F)cc2)C1)NCc1ccc(F)cc1 -11.8%
Cc1ccc(C)c(CN2C(=O)CSc3ccc(C(=O)NCc4ccc(F)cc4)cc32)c1 -11.9%
CCC(=O)N1c2nc(-c3ccco3)nn2C2(CCCCC2)[C@@H]2CCCC[C@@H]21 -11%
Cc1ccc(CSc2nc3cccnc3n2Cc2ccc(C(=O)NCCc3ccccc3)cc2)cc1 6.91%
CCS(=O)(=O)N1CCc2cc(C(=O)Nc3cccc(Cl)c3C)ccc21 28.1%
CCOc1c(Cl)cc(Cl)cc1CNCCSc1nnnn1C -10.6%
COc1ccc(N2CCN(C(CNC(=O)C(=O)NCCCN(C)C)c3cccnc3)CC2)cc1 (stereo unspecified) -8.33%
